Source: PubChem BioAssay AID1460 (National Center for Advancing Translational Sciences (NCATS), 2008)
“And” between values parts separate entries of the source, which are not always exact repeats. Equal values may be shown once. Among all 270,000 compounds or so, about 5,800 (2.1%) were called active. Inconclusive means that the source gave no clear call. Such entries were picked first, then a sample of the others. Calls come from the whole dose curve; as a rule, active = well fitted inhibition curve with a large enough effect; inconclusive = small, poorly fitted or top-dose-only effect; inactive = flat fitted curve, though single readings scatter. A potency beside an inconclusive call is a rough fit, not a confirmed value.

target: Microtubule-associated protein tau (Homo sapiens) (UniProt P10636); experiment: qHTS for Inhibitors of Tau Fibril Formation, Thioflavin T Binding; conditions: recombinant tau K18 P301L (four-repeat tau fragment), heparin-induced fibrillization, ThT fluorescence; series mostly up to 57.4 µM; activity, negative = inhibition: at the top concentration; note: nearly all actives have a fitted effect of over 55% in size
Description: NIH Molecular Libraries Probe Production Network [MLPCN]
NIH Chemical Genomics Center [NCGC]
Assay Provider: Carlo Ballatore, University of Pennsylvania
The microtubule-associated protein tau is an abundant protein in the axons of neurons that stabilizes microtubules. With its ability to modulate microtubule dynamics, tau contributes directly or indirectly, to key structural and regulatory cellular functions. Particularly important is the influence tau exerts on axonal transport, which allows signaling molecules, trophic factors and other essential cellular constituents to travel along the axons. Under pathological conditions, tau becomes sequestered into insoluble aggregates called neurofibrillary tangles. This phenomenon is believed to have pathological consequences by promoting axonal transport deficits that ultimately lead to synaptic dysfunction and neuronal loss. To identify inhibitors of tau aggregation, a heparin-induced tau fibril formation assay was used that employed a recombinantly expressed fragment of tau, K18 (Q242-E372), bearing a P301L mutation (Gustke et al. 1994; Hong et al. 1998). This assay monitors tau fibrillization by Thioflavin T (ThT) fluorescence.
Gustke, N., B. Trinczek, et al. (1994). "Domains of tau protein and interactions with microtubules." Biochemistry 33(32): 9511-22.
Hong, M., V. Zhukareva, et al. (1998).
Li, W. and V. M. Lee (2006).
von Bergen, M., S. Barghorn, et al. (2001). "Mutations of tau protein in frontotemporal dementia promote aggregation of paired helical filaments by enhancing local beta-structure." J Biol Chem 276(51): 48165-74.
NCGC Assay Protocol Summary:
For screening, 2 uL/well human K18 P301L (15 uM unlabeled and 0.24 uM Alexa 594-labeled tau, final concentrations) in reagent buffer (100 mM sodium acetate pH 7) was dispensed into black solid 1536-well plates (Grenier) using a solenoid-based dispenser. Following transfer of 23 nL compound or DMSO vehicle by a pin tool, 2 uL/well heparin (20 uM final concentration) in reagent buffer was added and the plate centrifuged 15 s at 1000 RPM. Plates were incubated 6 hr at 37 C and then 1 uL/well ThT (30 uM final concentration) was added. After a 1 hr ambient incubation, the plates were read by an Envision (Perkin Elmer) to monitor ThT fluorescence (450/8 nm excitation and 510/23 nm emission).
Keywords: NIH Roadmap, MLPCN, MLI, MLSMR, NCGC, qHTS, tau, tauopathies, Alzheimer's disease, fibril, neurodegeneration, aggregation
% is set by controls: 0 for no effect and ±100 for the full control effect; potency is the fitted concentration of half-maximal effect; tags give direction and shape of the fitted curve.

UniProt P10636, sequence (P10636 whole entry, looked up, the tested form may be a part): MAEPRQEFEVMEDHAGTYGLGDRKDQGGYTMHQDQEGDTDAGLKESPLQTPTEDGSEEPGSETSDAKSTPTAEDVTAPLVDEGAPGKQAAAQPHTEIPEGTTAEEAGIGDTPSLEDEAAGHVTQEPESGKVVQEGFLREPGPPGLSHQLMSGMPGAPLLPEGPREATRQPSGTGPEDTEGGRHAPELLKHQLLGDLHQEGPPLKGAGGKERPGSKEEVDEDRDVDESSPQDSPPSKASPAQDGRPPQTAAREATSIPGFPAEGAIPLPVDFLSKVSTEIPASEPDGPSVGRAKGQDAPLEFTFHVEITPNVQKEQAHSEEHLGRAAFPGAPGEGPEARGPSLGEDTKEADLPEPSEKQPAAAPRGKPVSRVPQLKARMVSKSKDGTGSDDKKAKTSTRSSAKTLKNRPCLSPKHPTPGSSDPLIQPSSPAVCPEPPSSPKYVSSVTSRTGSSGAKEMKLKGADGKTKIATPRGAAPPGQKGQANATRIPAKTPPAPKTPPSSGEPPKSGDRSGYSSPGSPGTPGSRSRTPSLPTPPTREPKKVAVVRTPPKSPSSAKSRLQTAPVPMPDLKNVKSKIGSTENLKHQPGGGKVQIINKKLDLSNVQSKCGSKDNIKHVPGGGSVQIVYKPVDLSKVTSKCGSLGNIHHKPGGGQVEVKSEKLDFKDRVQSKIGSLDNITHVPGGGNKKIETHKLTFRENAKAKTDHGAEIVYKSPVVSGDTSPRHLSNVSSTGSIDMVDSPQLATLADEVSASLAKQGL

SMILES	Potency	activity, negative = inhibition
CCOC(=O)C1=Nc2ccccc2/C1=C\c1c(O)n(C)c(=O)n(C)c1=O	inconclusive: 3.98 µM [inhibitor, partial curve, poor fit]	
COc1cc(N2CCOCC2)ccc1/C=C1\C(=O)NC(=O)N(Cc2cccs2)C1=O	inconclusive: 3.55 µM [inhibitor, full curve]	
N#CC1=C(N)Oc2c(c(=O)oc3ccccc23)C1c1ccc(OC(=O)N2CCOCC2)cc1 (stereo not drawn)	inconclusive: 20 µM [inhibitor, partial curve]	
Cc1cccc(NC(=O)N[C@@H]2N=C(c3ccccc3)c3ccccc3N(CC(=O)c3ccccc3C)C2=O)c1		inactive: -11.4%
COc1ccc(CN2C(=O)NC(=O)/C(=C/c3ccc([N+](=O)[O-])s3)C2=O)cc1	active: 7.94 µM	
COc1cc(C(c2c(O)c3ccccc3oc2=O)c2c(C)n(C)n(-c3ccccc3)c2=O)ccc1OCC(=O)O (stereo not drawn)	inconclusive: 39.8 µM [inhibitor, single point]	
CC1Oc2cc3c(-c4c(O)cc(O)c5c(O)c6c(cc45)OC(C)C(C)C6=O)c(O)cc(O)c3c(O)c2C(=O)C1C (stereo not drawn)	active: 12.6 µM	
CCOc1cccc(=NC2CCCCC2)c2c(C)n(C)c(C)c12	active: 12.6 µM	
C[C@H]1O[C@H](O[C@H]2[C@H](O)[C@@H](O)[C@@H](O)[C@H](O)[C@@H]2O)[C@@H](N)C[C@@H]1NC(=N)C(=O)O	inconclusive: 0.794 µM [inhibitor, single point]	
C/C(O)=C(/C#N)C(=O)Nc1cc(Br)ccc1Br		inactive: -15.1%
COc1ccc(N2CCN(c3ncnc4c3nc3n4CCCCC3)CC2)cc1	inconclusive: 14.1 µM [inhibitor, partial curve, poor fit]	
CCOc1ccc(N2C(=O)NC(=O)/C(=C\c3ccc(N4CCOCC4)cc3C)C2=O)cc1	inconclusive: 6.31 µM [inhibitor, partial curve]	
COc1ccccc1NC(=O)N(Cc1ccc2c(c1)OCO2)C1CCN(Cc2ccccc2)CC1		inactive: -5.26%
O=C1NC(=O)N(Cc2ccco2)C(=O)/C1=C/c1ccc(-c2cccc([N+](=O)[O-])c2)o1	inconclusive: 28.2 µM [inhibitor, single point]	
CN[C@@H]1C[C@@H](c2ccc(Cl)c(Cl)c2)c2ccccc21	inconclusive: 17.8 µM [inhibitor, single point]	
CCC(C)NC(=O)c1c(N)n(Cc2ccc3c(c2)OCO3)c2nc3ccccc3nc12 (stereo not drawn)	active: 20 µM	
CC(C)OCCCNC(=O)c1c(N)n(CC2CCCO2)c2nc3ccccc3nc12 (stereo not drawn)	inconclusive: 20 µM [inhibitor, partial curve]	
Fc1ccc(CN2CCN(c3ccc(Cl)cc3)CC2)cc1	inconclusive: 11.2 µM [inhibitor, partial curve]	
O=C(N/N=C/c1c(O)n(C2CC2)c(=S)[nH]c1=O)c1ccccc1O	inconclusive: 10 µM [inhibitor, partial curve]	
O=C(O)Cc1cccnc1C(=O)O	inconclusive: 35.5 µM [inhibitor, single point]	
CCC(C)N1C(=O)NC(=O)C2(Cc3cc(C)ccc3N(C)C2)C1=O (stereo not drawn)	inconclusive: 28.2 µM [inhibitor, partial curve]	

SMILES	Potency	activity, negative = inhibition
CN1CCc2nc3sc(C(=O)NC4CC4)c(N)c3cc2C1	inconclusive: 3.16 µM [inhibitor, single point]	
C=CCN1C(=O)NC(=O)C(Cc2ccc(OC)c(OC)c2)C1=O (stereo not drawn)	inconclusive: 28.2 µM [inhibitor, single point]	
O=c1[nH]c(=S)[nH]c(O)c1N=Nc1ccc2c(c1)OCO2	active: 3.98 µM	
O=[N+]([O-])c1cc(O)c(O)c([N+](=O)[O-])c1	inconclusive: 14.1 µM [inhibitor, partial curve] and inconclusive: 12.6 µM [inhibitor, partial curve]	
O=[N+]([O-])c1ccc(N2CCNCC2)c2ncccc12	inconclusive: 10 µM [inhibitor, partial curve]	
CCCCCn1c(N)c(C(=O)NCc2cccs2)c2nc3ccccc3nc21	inconclusive: 15.8 µM [inhibitor, partial curve]	
CCCCCCCCCCCCCCC[C@@H](O)[C@@H](N)COP(=O)(O)O		inactive: 1.16%
CCC(=O)N1N=C2C3CCN(CC3)C2C1c1ccccc1 (stereo not drawn)		inactive: 0.435%
O=[N+]([O-])c1ccc(N2CCCC2)cc1N/N=C1\CN2CCC1CC2	inconclusive: 17.8 µM [inhibitor, partial curve]	
CN(C)C1C(=O)C(C(N)=O)=C(O)[C@@]2(O)C(=O)C3=C(O)c4c(O)cccc4[C@@](C)(O)C3[C@H](O)C12 (stereo partly drawn)	active: 7.08 µM	
C=CCN1C(=O)NC(=O)/C(=C/c2ccc(OC)c(CSc3ccccn3)c2)C1=O	inconclusive: 14.1 µM [inhibitor, partial curve]	
COC(=O)[C@@]1(Cc2ccc(F)cc2)[C@H]2c3cc(C(=O)N(C)C)[nH]c3C[C@H]2CN1C(=O)c1ccccc1	inconclusive: 0.126 µM [activator, full curve, poor fit]	
O=C(Nc1ccc2c(c1)OCCO2)c1cccn(Cc2cccc(F)c2)c1=O	inconclusive: 25.1 µM [inhibitor, partial curve]	
O=c1[nH]c(=S)[nH]c(O)c1N=Nc1cc2c(cc1[N+](=O)[O-])OCO2	active: 12.6 µM	
C/C(=N\N1CCCCCC1)c1c(O)n(C)c(=O)n(C)c1=O		inactive: 0.218%
CCCCn1c(O)c(/C(CC)=N/N2CCCCC2c2cccnc2)c(=O)[nH]c1=S (stereo not drawn)		inactive: -9.99%
COc1ccc(C(=O)Nc2sc3c(c2C(=O)O)CC(C)(C)OC3)cc1	inconclusive: 39.8 µM [inhibitor, single point]	
Cc1cccn2c(=O)c(/C=C(\C#N)c3nc4ccccc4s3)c(Oc3ccc(F)cc3)nc12	inconclusive: 14.1 µM [inhibitor, partial curve, poor fit]	
CCOc1ccccc1N1C(=O)NC(=O)/C(=C/c2ccc3c4c(cccc24)CC3)C1=O	inconclusive: 14.1 µM [inhibitor, partial curve]	
C=CCc1cc(C=C2C(=O)NC(=O)NC2=O)cc(OC)c1OCc1ccc(C(=O)O)cc1	inconclusive: 7.94 µM [inhibitor, full curve]	
CCOC(=O)c1cc(CC)sc1/N=C/C1C(=O)NC(=S)NC1=O	inconclusive: 44.7 µM [inhibitor, single point]	

SMILES	Potency	activity, negative = inhibition
Nc1c(C(=O)NCCc2ccccc2)c2nc3ccccc3nc2n1CCN1CCOCC1	inconclusive: 11.2 µM [inhibitor, partial curve]	
CC(Cc1ccccc1)NCC(=O)Nc1cc(N(C)C)nc2ccccc12 (stereo not drawn)	inconclusive: 22.4 µM [inhibitor, single point]	
Nc1ccccc1C(=O)OCC(=O)N1CCc2ccccc21	inconclusive: 11.2 µM [inhibitor, partial curve]	
CC(C)c1ccc(N2C(=O)NC(=O)/C(=C/c3cnc(-c4ccccc4)nc3)C2=O)cc1	active: 15.8 µM	
NC(=O)CSP(=O)(c1ccccc1)c1ccccc1	active: 28.2 µM	
COc1ccc(Nc2cc(C)c3cc(NC(=O)c4ccccc4Cl)ccc3n2)cc1	active: 3.98 µM	
O=C(Nc1ccc(Cl)cc1C(=O)c1ccccc1)c1cc(Cl)cc(Cl)c1	inconclusive: 39.8 µM [inhibitor, single point]	
C=C(C)Cn1c(-c2cccc([N+](=O)[O-])c2)n[nH]c1=S	inconclusive: 25.1 µM [inhibitor, partial curve]	
C=C(C)[C@H]1CN[C@H](C(=O)O)[C@H]1CC(=O)O	inactive	
O=C(c1cccc2ccccc12)C1CCCN(C2CCC2)C1 (stereo not drawn)		inactive: -5.79%
Cc1cc(-c2nc3ncccc3o2)ccc1NC(=O)c1ccccc1Br	inconclusive: 7.94 µM [inhibitor, full curve]	
Cn1c(O)c(C(=N)COc2ccccc2)c(=O)n(C)c1=O	inconclusive: 20 µM [inhibitor, single point]	
Cc1ccc(N2C(=O)/C(=C/c3ccc(CN(CCC#N)S(C)(=O)=O)o3)C(=O)NC2=S)cc1	active: 22.4 µM	
CCCCn1c(O)c(C(CC)=NCCc2ccccc2)c(=O)[nH]c1=O	inconclusive: 15.8 µM [inhibitor, partial curve, poor fit]	
CCOc1ccc(C(=O)Nc2cc(NC(=O)c3ccco3)ccc2OC)cc1Br	inconclusive: 0.447 µM [inhibitor, full curve]	
CCCN1[C@H](C(=O)OC)C[C@@H]2CC[C@@H](O)C[C@@H]21	inconclusive: 22.4 µM [inhibitor, partial curve]	
CSc1ccc(CN2CCN(C(=O)COc3ccc(C)cc3)CC2)cc1	inactive and inconclusive: 11.2 µM [inhibitor, partial curve, poor fit]	
CCOc1ccc(C2c3c(-c4ccccc4O)n[nH]c3C(=O)N2Cc2ccncc2)cc1 (stereo not drawn)	inconclusive: 17.8 µM [inhibitor, single point]	
O=C(N/N=C/c1c(O)n(CCC2=CCCCC2)c(=O)[nH]c1=O)c1ccccc1	inconclusive: 28.2 µM [inhibitor, partial curve]	
CCOC(=O)c1c(C)n(Cc2ccccc2)c2ccc(OCC(O)CN3C(=O)CNC3=O)cc12 (stereo not drawn)	inconclusive: 28.2 µM [inhibitor, partial curve, poor fit]	
Cc1ccc(CCNC(=O)C2CCCN(Cc3nc(-c4cccc(Cl)c4)oc3C)C2)cc1 (stereo not drawn)	inconclusive: 35.5 µM [inhibitor, single point]	
